# Data as given in PMC4336329 (PLoS ONE, 2015).
# The campaign covered roughly 310,000 compounds. About 2,200 (0.71%) showed an effect of 50% or more. Effects have a minus sign here. The list shows a part of the results.
# Target: human ether-à-go-go-related gene (hERG) potassium channel (human, UniProt Q12809)
# Test: primary screen, population patch clamp on CHO cells stably expressing hERG
# Sequence of human ether-à-go-go-related gene (hERG) potassium channel (Q12809 whole entry, looked up): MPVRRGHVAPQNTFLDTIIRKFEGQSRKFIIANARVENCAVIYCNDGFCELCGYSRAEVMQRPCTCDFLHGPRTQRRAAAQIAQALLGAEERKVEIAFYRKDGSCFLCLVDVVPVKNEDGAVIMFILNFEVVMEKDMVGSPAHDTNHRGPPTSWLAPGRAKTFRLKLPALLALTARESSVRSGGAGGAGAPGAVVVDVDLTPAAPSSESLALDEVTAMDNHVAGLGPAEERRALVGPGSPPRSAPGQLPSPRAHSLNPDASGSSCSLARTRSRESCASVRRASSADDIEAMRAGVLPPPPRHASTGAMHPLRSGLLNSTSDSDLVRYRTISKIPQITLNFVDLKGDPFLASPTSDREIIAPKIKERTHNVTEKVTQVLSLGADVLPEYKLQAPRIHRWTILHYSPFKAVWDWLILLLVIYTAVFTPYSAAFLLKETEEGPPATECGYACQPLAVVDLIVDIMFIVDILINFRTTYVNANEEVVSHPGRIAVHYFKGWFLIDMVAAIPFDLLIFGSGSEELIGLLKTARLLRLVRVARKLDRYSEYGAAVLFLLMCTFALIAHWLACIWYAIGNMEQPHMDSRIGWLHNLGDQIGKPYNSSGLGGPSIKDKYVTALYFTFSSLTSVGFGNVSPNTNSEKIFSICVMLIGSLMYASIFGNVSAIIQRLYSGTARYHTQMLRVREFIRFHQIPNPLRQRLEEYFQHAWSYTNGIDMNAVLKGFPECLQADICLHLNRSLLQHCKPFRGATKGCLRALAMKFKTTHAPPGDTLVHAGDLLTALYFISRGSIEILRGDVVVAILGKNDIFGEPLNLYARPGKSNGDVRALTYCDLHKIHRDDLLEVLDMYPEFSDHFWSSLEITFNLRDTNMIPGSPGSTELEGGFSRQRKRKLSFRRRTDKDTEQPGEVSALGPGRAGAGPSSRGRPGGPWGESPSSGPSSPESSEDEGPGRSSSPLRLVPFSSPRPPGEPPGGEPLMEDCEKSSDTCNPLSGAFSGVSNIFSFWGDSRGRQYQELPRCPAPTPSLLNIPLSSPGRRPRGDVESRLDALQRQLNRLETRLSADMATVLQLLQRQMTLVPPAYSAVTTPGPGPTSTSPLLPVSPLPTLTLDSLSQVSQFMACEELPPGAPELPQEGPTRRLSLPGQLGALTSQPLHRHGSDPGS
row,Structure (SMILES),"hERG current change (%, negative = inhibition) at 1uM [%]"
1,NS(=O)(=O)c1ccc(CNC(=O)/C=C/c2ccccc2[N+](=O)[O-])cc1,8.06
2,CC(Sc1cnc2ccccc2n1)C(=O)O (stereo not shown),13.7
3,COC(=O)c1ccc(CSc2nc(C(F)(F)F)c3c(c2C#N)CCC3)o1,2.61
4,Fc1ccccc1OCCCCCN1CCCC1,4.93
5,COC(=O)c1nnn(-c2ccc(F)c(Cl)c2)c1C(=O)OC,12.2
6,COc1ccc(CN2C(=O)c3ccccc3C2C(=O)NC2CCCC2)c(OC)c1 (stereo not shown),-3.81
7,Cc1cc(N2CCOCC2)n2ncc(-c3ccccc3)c2n1,-2.91
8,C=C(C)c1cccc(C(C)(C)NC(=O)Nc2ccc(Cl)cn2)c1,4.85
9,CC(=O)CCn1c(=O)n(CCC(C)=O)c(=O)n(CCC(C)=O)c1=O,10.6
10,CC(C)n1cc(CN2CCCC(CO)(Cc3cccc(Cl)c3)C2)cn1 (stereo not shown),3.37
11,Cc1cc(-c2ccco2)n(CC(=O)NCCN(C)C)n1,13
12,CC1CCCCC1NC(=O)c1ccc(S(=O)(=O)N2CCN(C)CC2)cc1 (stereo not shown),11.9
13,Cc1ccc(Cl)cc1N1CCN(S(=O)(=O)c2c(C)[nH]c(C)c2C(=O)N2CCCCC2)CC1,14.4
14,CCOC(=O)C(C(=O)Nc1ccc(C)cc1)C1CCCCC1 (stereo not shown),4.96
15,O=C(COC(=O)/C=C/c1ccccc1Cl)NC1CCCC1,6.08
16,Fc1ccc2cnc(-c3ccccc3)c(-c3cccc(C(F)(F)F)c3)c2c1,22.5
17,Cc1cccc(C)c1NC(=O)CSc1nnc(-c2cnccn2)n1C,12.7
18,C/C(=N/NS(=O)(=O)c1cccc([N+](=O)[O-])c1)c1ccncc1,7.07
19,O=[N+]([O-])c1cccc(Cl)c1NCCNS(=O)(=O)c1ccccc1,0.78
20,Cc1cc2oc(=O)cc(CN3CCOCC3)c2cc1Cl,16.6
21,CCN(CC(O)c1cccc(O)c1)C(=O)C12CC3CC(CC(C3)C1)C2.Cl (stereo not shown),9.66
22,CCS(=O)(=O)c1nc(S(=O)(=O)c2ccc(C)cc2)c(N2CC(C)OC(C)C2)s1 (stereo not shown),10.1
23,COc1cc(C(c2c(C)[nH][nH]c2=O)c2c(C)[nH][nH]c2=O)ccc1OS(=O)(=O)c1ccccc1,2.84
24,Cc1onc(-c2ccccc2)c1C(=O)Nc1nnc(CC(C)C)s1,8.63
25,CCC(=O)Nc1ccc2nc(SCC(=O)N3CCOCC3)sc2c1,6.41
26,COc1ccc(S(=O)(=O)N(C)c2ccc(C(=O)N3CCCCC3)cc2)cc1OC,2.42
27,COC(=O)C(C(=O)OC)N1C(=O)CCC1=O,-4.43
28,O=C(O)/C=C/C(=O)N(CC1CCCO1)C1CC(=O)N(c2c(Cl)cccc2Cl)C1=O (stereo not shown),12.2

row,Structure (SMILES),"hERG current change (%, negative = inhibition) at 1uM [%]"
1,COC(=O)c1c(C)nc(C)c(C(=O)OC)c1-c1cccs1,3.4
2,CCC(Oc1ccccc1)C(=O)Nc1cc(Cl)ccc1-n1cncn1 (stereo not shown),14.7
3,Fc1cc(Br)ccc1NC(=S)Nc1ccccc1,9.18
4,CCOC(=O)N1CCN(c2ncnc3scc(-c4ccccc4)c23)CC1,11.5
5,Cc1nc(NCCc2ccccc2)c2nnn(Cc3ccccc3Cl)c2n1,15.9
6,O=C(O)c1ccc(Oc2cccc([N+](=O)[O-])c2)cc1C(=O)O,11
7,CC(=O)O[C@H]1C(=O)[C@@]2(C)[C@H]([C@H](OC(=O)c3ccccc3)[C@]3(O)C[C@H](OC(=O)[C@H](O)C(NC(=O)c4ccccc4)c4ccccc4)C(C)=C1C3(C)C)[C@]1(OC(C)=O)CO[C@@H]1C[C@@H]2O (stereo partly shown),12.2
8,CC(NC(=O)c1ccccc1Cl)C1CC2CCC1C2 (stereo not shown),10.3
9,CCCc1nnc(SCc2ccc(OCC)cc2)n1N,12.1
10,COc1ccc(/C=C/C(=O)O)cc1S(=O)(=O)NCC1CCCO1 (stereo not shown),0.599
11,COc1ccc(C)cc1Nc1n[n+](-c2ccccc2)c(-c2ccc(NC(C)=O)cc2)s1.[Cl-],13.3
12,O=C(c1cccc(N2CCCC2=O)c1)N1CCN(c2cccc(Cl)c2)CC1,9.22
13,O=C(Nc1ccc(Cl)cn1)c1ccc2ccccc2n1,13
14,Cn1c(-c2cc(Br)ccc2O)n[nH]c1=S,19.6
15,COc1ccc(C(=O)NCC(c2ccco2)N2CCOCC2)cc1OC (stereo not shown),19.9
16,CN(C(=O)COC(=O)CSc1ccc(C(N)=O)cc1[N+](=O)[O-])C1CCS(=O)(=O)C1 (stereo not shown),-11.4
17,COc1ccc(OC)c(NC(=O)CN2CCC(C(=O)c3ccc(C)cc3)CC2)c1,0.612
18,Cc1nnc(SCCn2c(N(C)Cc3ccccc3)nc3c2c(=O)n(C)c(=O)n3C)s1,-1.88
19,O=C(C1CCN(c2ccc(N3CCOCC3)nn2)CC1)N1CCN(c2ccc(F)cc2)CC1,-23.3
20,Cc1nc2ccccc2nc1OCc1cccc([N+](=O)[O-])c1,1.18
21,COc1ccc(Cl)cc1S(=O)(=O)N(C)CC(=O)NCCCn1ccnc1,8.8
22,Cc1ccc(S(=O)(=O)NC(C)(C)CN2CCc3ccccc3C2)cc1,-4.87
23,CC1CCc2c(sc(NC(=O)Cn3nc(C(=O)O)c4ccccc4c3=O)c2C#N)C1 (stereo not shown),6.58
24,C[C@H](NC(=O)OC(C)(C)C)C(=O)NCC1CCC(C(=O)N[C@@H](Cc2ccccc2)C(=O)O)CC1 (stereo partly shown),15.1
25,CCn1cc(S(=O)(=O)N2CCCC2)cn1,15.5
26,COc1ccc(N(Cc2ccccc2)S(=O)(=O)c2ccc(C)cc2)cc1,9.18
27,Cc1cc(C)n2nc(C(=O)N/N=C/c3cccc(Cl)c3)nc2n1,-0.287
